According to the supplement of paper PMC9174493:
The list shows a part of the results. Single values of this set are uncertain. Values with irradiation are relative to irradiated vehicle.

These compounds were tested on A549-Dual (assay: ISRE reporter (Lucia luciferase) activity, viability-corrected, relative to vehicle (fold change vs vehicle); higher = more activation of STING-IRF / NF-kB immune response reporter). Settings: 0.1 µM; irradiation: none.

Structure (SMILES) | ISRE reporter
CC1=C(CC(=O)O)c2cc(F)ccc2/C1=C\c1ccc(S(C)=O)cc1 (stereo not given) [Sulindac] | 0.968
C1N2CN3CN1CN(C2)C3 [Methenamine] | 1.05
COc1ccc2cc(C(C)C(=O)[O-])ccc2c1.[Na+] (stereo not given) [Naproxen Sodium] | 0.913
Cc1ccc(Cl)c(Nc2ccccc2C(=O)[O][Na])c1Cl [Meclofenamate Sodium] | 1.22
O=C(OCCOCCO)c1ccccc1Nc1cccc(C(F)(F)F)c1 [Etofenamate] | 0.753
O=C([O-])c1cc(N=Nc2ccc(O)c(C(=O)[O-])c2)ccc1O.[Na+].[Na+] [Olsalazine Sodium] | 0.758
CC(=O)Nc1ccc(OC(=O)c2ccccc2OC(C)=O)cc1 [Benorylate] | 0.81
CO/N=C(\C(=O)NC1C(=O)N2C(C(=O)OCOC(=O)C(C)(C)C)=C(C)CSC12)c1csc(N)n1.Cl (stereo not given) [Cefetamet pivoxil hydrochloride] | 0.833
CCC(C(=O)O)c1ccc(N2Cc3ccccc3C2=O)cc1 (stereo not given) [Indobufen] | 0.975
CS(=O)(=O)O.Cc1ccc(NC(=O)c2ccc(CN3CCN(C)CC3)cc2)cc1Nc1nccc(-c2cccnc2)n1 [Imatinib Mesylate (STI571)] | 0.89
CC(C(=O)O)c1ccc(C(=O)c2ccccc2)s1 (stereo not given) [Tiaprofenic acid] | 2.06
CCc1nc(N)nc(N)c1-c1ccc(Cl)cc1 [Pyrimethamine] | 1.57
COc1cc(C2c3cc4c(cc3C(OC3OC5COC(C)OC5C(O)C3O)C3COC(=O)C23)OCO4)cc(OC)c1O (stereo not given) [Etoposide] | 4.09
CN(C)CCC(c1ccc(Br)cc1)c1ccccn1.O=C(O)/C=C\C(=O)O (stereo not given) [Brompheniramine hydrogen maleate] | 1.15
CC12CCC3c4ccc(O)cc4CC(CCCCCCCCCS(=O)CCCC(F)(F)C(F)(F)F)C3C1CCC2O (stereo not given) [Fulvestrant] | 0.922
O=C([O-])CC(O)(CC(=O)[O-])C(=O)[O-].O=C([O-])CC(O)(CC(=O)[O-])C(=O)[O-].[BiH6+3].[K+].[K+].[K+] [Gastrodenol] | 1.1
CCCCC1(COC(=O)CCC(=O)O)C(=O)N(c2ccccc2)N(c2ccccc2)C1=O [Suxibuzone] | 1.14
O=C(O)Cc1ccccc1Nc1c(Cl)cccc1Cl.OCCN1CCCC1 [Diclofenac Epolamine] | 0.658
Cl.N=C1CCCN1Cc1[nH]c(=O)[nH]c(=O)c1Cl.O=c1[nH]c(=O)n(C2CC(O)C(CO)O2)cc1C(F)(F)F.O=c1[nH]c(=O)n(C2CC(O)C(CO)O2)cc1C(F)(F)F (stereo not given) | 1.92
NC(CO)(CO)CO [Trometamol] | 0.923

Structure (SMILES) | ISRE reporter
COc1ccc2c(c1)c(CC(=O)O)c(C)n2C(=O)c1ccc(Cl)cc1 [Indomethacin] | 1.03
Cn1cnc([N+](=O)[O-])c1Sc1ncnc2nc[nH]c12 [Azathioprine] | 1.16
NCCNc1ccc(NCCN)c2c1C(=O)c1ccncc1C2=O.O=C(O)/C=C\C(=O)O.O=C(O)/C=C\C(=O)O [Pixantrone Maleate] | 4.6
CC(=O)Oc1cccc2c1C(=O)c1c(OC(C)=O)cc(C(=O)O)cc1C2=O [Diacerein] | 0.677
CNCC(O)c1ccc(O)c(O)c1.O=C(O)C(O)C(O)C(=O)O (stereo not given) [Epinephrine bitartrate] | 1.25
CC1(C(=O)O)CCC2(C)CCC3(C)C(=CC(=O)C4C5(C)CCC(OC6OC(C(=O)O)C(O)C(O)C6OC6OC(C(=O)O)C(O)C(O)C6O)C(C)(C)C5CCC43C)C2C1.N.N (stereo not given) [Diammonium Glycyrrhizinate] | 1.08
CCCCCCCCCCCCCCCCCCOP(=O)([O-])OC1CC[N+](C)(C)CC1 [Perifosine (KRX-0401)] | 1.27
COc1c2occc2cc2ccc(=O)oc12 [Methoxsalen] | 0.861
O=C(O)CCCN1CCC(OC(c2ccc(Cl)cc2)c2ccccn2)CC1 (stereo not given) [Bepotastine] | 1.44
CN(C)CCCOc1nn(Cc2ccccc2)c2ccccc12.Cl [Benzydamine HCl] | 0.701
CC(C(=O)O)c1ccc2c(c1)[nH]c1ccc(Cl)cc12 (stereo not given) [Carprofen] | 0.676
COc1cc2nccc(Oc3ccc(NC(=O)Nc4cc(C)on4)c(Cl)c3)c2cc1OC [Tivozanib (AV-951)] | 0.862
Oc1ccc(/C=C/c2cc(O)cc(O)c2)cc1 [Resveratrol] | 1.06
Nc1cccc2c1C(=O)N(C1CCC(=O)NC1=O)C2=O (stereo not given) [Pomalidomide] | 1.01
COc1cc(C2c3cc4c(cc3C(OC3OC5COC(c6cccs6)OC5C(O)C3O)C3COC(=O)C23)OCO4)cc(OC)c1O (stereo not given) [Teniposide] | 2.51
S=c1nc[nH]c2nc[nH]c12 [Mercaptopurine (6-MP)] | 0.999
CC(C(=O)O)c1ccc2c(c1)CC(=O)c1ccccc1S2 (stereo not given) [Zaltoprofen] | 0.968
Cc1nc(Nc2ncc(C(=O)Nc3c(C)cccc3Cl)s2)cc(N2CCN(CCO)CC2)n1.Cl [Dasatinib hydrochloride] | 0.898
O=c1[nH]cc(F)c(=O)[nH]1 [Fluorouracil (5-Fluoracil, 5-FU)] | 1.1
COc1cc(/C=C/C(=O)/C=C(O)/C=C/c2ccc(O)c(OC)c2)ccc1O [Curcumin] | 0.928
